Data reported in the supplement of paper PMC4604168 (melanoma cell lines).
This is one part of the list. Repeats are few or missing, and single values can be far off.

Tested on: COLO829
Test: cell count relative to DMSO control; melanoma cells; higher = more viable cells
Details: library dose: low library concentration; 72 h
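Further: cell number obtained by counting DAPI-stained nuclei in high-throughput microscope images with image analysis software, screen run in 1,536-well plates.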

SMILES | cell count
O=C(O)[C@@H]1[O][Sb](=[O])([O][Sb]2(=[O])[O][C@H]([C@H](O)CO)[C@H](O)[C@H](C(=O)O)[O]2)[O][C@H]([C@H](O)CO)[C@@H]1O (stereo partly drawn) [stibogluconate] + O=C(Oc1ccc([N+](=O)[O-])cc1)N1CCC(C(O)(c2ccc3c(c2)OCO3)c2ccc3c(c2)OCO3)CC1 [JZL184] (first compound 2 µM, partner dose 1 µM) | 112%
Cc1ccc(Nc2nccc(N(C)c3ccc4c(C)n(C)nc4c3)n2)cc1S(N)(=O)=O [Pazopanib] + O=C(Oc1ccc([N+](=O)[O-])cc1)N1CCC(C(O)(c2ccc3c(c2)OCO3)c2ccc3c(c2)OCO3)CC1 [JZL184] (first compound 0.4 µM, partner dose 1 µM) | 115%
CNC(=O)c1cc(Oc2ccc(NC(=O)Nc3ccc(Cl)c(C(F)(F)F)c3)cc2)ccn1 [sorafenib] + O=C(Oc1ccc([N+](=O)[O-])cc1)N1CCC(C(O)(c2ccc3c(c2)OCO3)c2ccc3c(c2)OCO3)CC1 [JZL184] (first compound 0.4 µM, partner dose 1 µM) | 99.3%
CNC(=O)c1cc(Oc2ccc(NC(=O)Nc3ccc(Cl)c(C(F)(F)F)c3)cc2)ccn1 [sorafenib] + C/C(O)=C(\C#N)C(=O)Nc1cc(Br)ccc1Br [LFM-A13] (first compound 0.4 µM, partner dose 2 µM) | 104%
CCCS(=O)(=O)Nc1ccc(F)c(C(=O)c2c[nH]c3ncc(Cl)cc23)c1F + O=C(Oc1ccc([N+](=O)[O-])cc1)N1CCC(C(O)(c2ccc3c(c2)OCO3)c2ccc3c(c2)OCO3)CC1 [JZL184] (first compound 0.08 µM, partner dose 1 µM) | 95.8%
CCCCCCCCc1ccc(CCC(N)(CO)CO)cc1 [fingolimod] + O=C(Oc1ccc([N+](=O)[O-])cc1)N1CCC(C(O)(c2ccc3c(c2)OCO3)c2ccc3c(c2)OCO3)CC1 [JZL184] (first compound 2 µM, partner dose 1 µM) | 90.4%
Cc1cn(-c2cc(NC(=O)c3ccc(C)c(Nc4nccc(-c5cccnc5)n4)c3)cc(C(F)(F)F)c2)cn1 [nilotinib] + O=C(Oc1ccc([N+](=O)[O-])cc1)N1CCC(C(O)(c2ccc3c(c2)OCO3)c2ccc3c(c2)OCO3)CC1 [JZL184] (first compound 0.2 µM, partner dose 1 µM) | 116%
CN(c1ncccc1CNc1nc(Nc2ccc3c(c2)CC(=O)N3)ncc1C(F)(F)F)S(C)(=O)=O + Cc1cc(SCc2sc(-c3ccc(C(F)(F)F)c(F)c3)nc2C)ccc1OCC(=O)O [GW0742] (first compound 0.08 µM, partner dose 2 µM) | 99.1%
C[C@@H](Oc1cc(-c2cnn(C3CCNCC3)c2)cnc1N)c1c(Cl)ccc(F)c1Cl [Crizotinib] + Cc1cc(SCc2sc(-c3ccc(C(F)(F)F)c(F)c3)nc2C)ccc1OCC(=O)O [GW0742] (first compound 0.2 µM, partner dose 2 µM) | 112%
O=c1[nH]nc(Sc2ncc([N+](=O)[O-])s2)n1-c1ccc2c(c1)OCCO2 + Cc1cc(SCc2sc(-c3ccc(C(F)(F)F)c(F)c3)nc2C)ccc1OCC(=O)O [GW0742] (first compound 0.2 µM, partner dose 2 µM) | 130%
CC[C@]1(O)C[C@H]2CN(CCc3c([nH]c4ccccc34)[C@@](C(=O)OC)(c3cc4c(cc3OC)N(C=O)[C@H]3[C@@](O)(C(=O)OC)[C@H](OC(C)=O)[C@]5(CC)C=CCN6CC[C@]43[C@@H]65)C2)C1 [vincristine] + O=C(Oc1ccc([N+](=O)[O-])cc1)N1CCC(C(O)(c2ccc3c(c2)OCO3)c2ccc3c(c2)OCO3)CC1 [JZL184] (first compound 0.0001 µM, partner dose 1 µM) | 73%
CC(=O)c1c(C)c2cnc(Nc3ccc(N4CCNCC4)cn3)nc2n(C2CCCC2)c1=O [palbociclib] + C/C(O)=C(\C#N)C(=O)Nc1cc(Br)ccc1Br [LFM-A13] (first compound 0.04 µM, partner dose 2 µM) | 78.1%
CN(c1ncccc1CNc1nc(Nc2ccc3c(c2)CC(=O)N3)ncc1C(F)(F)F)S(C)(=O)=O + C/C(O)=C(\C#N)C(=O)Nc1cc(Br)ccc1Br [LFM-A13] (first compound 0.08 µM, partner dose 2 µM) | 65%
